The text below walks through data of the supplement of paper PMC10338343.

± gives the standard deviation. The list shows a part of the results, in another mix than the full data.
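Further: 1 nM active piRISC with 0.1 nM target library at 33 °C single turnover.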

The test system of this assay is MIWI (PIWIL1) piRISC loaded with L1MC piRNA (30 nt). Put plainly: pre-steady-state target cleavage rate (min^-1); MIWI and MILI are mouse PIWI proteins and EfPiwi is from a freshwater sponge; tags in brackets are library labels; higher = faster piRNA-guided slicing of the target. Particulars: guide: L1MC piRNA 5'p-UAACUAAAUACUAUGCAAGCUGUAGGUCCU; auxiliary factor: 500 nM mouse GTSF1. Put shortly: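 Active affinity-purified piRISC carrying one synthetic guide (1 nM) was mixed with a transcribed, DNA-blocked target RNA library […] in HEPES–potassium acetate buffer at 33 °C for 0–8 or 0–960 min, with or without 500 nM GTSF1 partner protein. Uncleaved targets were then sequenced and normalised to depth and to weakly complementary targets. Three trials were pooled, and k3 was capped at 0.0001 min^-1. A burst-and-steady-state fit was applied to obtain the pre-steady-state cleavage rate.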
Take “UCCUGCUACAGCUUGCAUAGUAUAAUCAAA [g8:g25:cont:t1A]”: the “pre-steady-state target cleavage rate” value is 0.319 ± 0.068.

Consider UCCUCCUACAGCAUGCAUAGUAUUUUCAAA, for which the “pre-steady-state target cleavage rate” value stood at 0.325 ± 0.049. Under UCCACCUACUCGUUGCAUAGUAUUUUCAAA stands 0.129 ± 0.02; under UGGACCUACAGCUUGCAAUGUAUUUACAAA, 0.0217 ± 0.0068; under UCCUGGAUGAGCUAGCAUAGUAUUUAGAAA, 0.124 ± 0.029. Under UCCUGGAACAGCUUCGUUAGUAUUUAGUAA stands 0.0168 ± 0.0066; under UCCUGCAUGAGCUUGCAUAGUAUUUUCAAA, 0.113 ± 0.024; under UCCUGGUACACGUUGCAUAGUAUUUAGUAA, 0.178 ± 0.041.

As for UCCUGGUACAGCUUCGAUAGUAUUUAGAAA, the “pre-steady-state target cleavage rate” value was found to be 0.0245 ± 0.0077. Under UCCUGGAUGUCCAUGCAUAGUAUUUAGUUA stands 0.0122 ± 0.0055; under UCCUGGAUGAGGUUGCAUACUAUUUAGUUA, 0.0173 ± 0.0077. On to UCCUGGAAGUGCUUGCAUAGUAUUUAGAAA, for which the “pre-steady-state target cleavage rate” value was determined as 0.0537 ± 0.016. Under UCCUCCUACAGCUUGCAUAGUAUUUGUUA stands 0.351 ± 0.036; under UCCUGGAUCAGCUUCCAUAGUUUUUAGUUA, 0.00762 ± 0.0043; under UCCUCCUAGUGCUUGCAUAGUAUUUUCAAA, 0.0841 ± 0.017. Under UCCUGGAUGUCGAUGUAUAGUAUUUAGUUA stands 0.0109 ± 0.0038; under UCCUGGAUGAGCAUGCAUAGUAUUUAGAAA, 0.0642 ± 0.014; under UCCUGGUACAGCAAGCAUAGUAUUUUCAAA, 0.0796 ± 0.022. Under UCCUGCUACAGCUUGCGAUAGUAUUUAGUUA stands 0.0285 ± 0.0087; under UCCUGCUACAGCUUGCUAUGUAUUUAGUAA, 0.122 ± 0.03.

In the case of UCCUGGAACAGCUUGCAUAGUAUAUACAAA, the “pre-steady-state target cleavage rate” value was found to be 0.266 ± 0.059.

For UGGACCUACAGCUUGCAAUCUAUUUAGAAA, the “pre-steady-state target cleavage rate” value worked out at 0.0171 ± 0.0057. For the sequence AGGACCUACAGCUUGCUAAGUAUUUUCAAA, the “pre-steady-state target cleavage rate” value turned out to be 0.0205 ± 0.0097. Under UCCUGGAUGAGCUUGCUAAGUAUUUAGUUA stands 0.00707 ± 0.0029.

For the sequence UGGACCUACAGCUUGCAUUCUAUUUACAAA, the “pre-steady-state target cleavage rate” value was 0.0133 ± 0.006. Under UCCUGGAUGUCCUUGCAUACUUUUUAGUUA stands 0.00472 ± 0.0041; under UCGACCUACAGCUUGCAUAGUAAUUAGAAA, 0.355 ± 0.046. With UCCUCCUACAGCUUGCAUACAAUUUAGUAA, the “pre-steady-state target cleavage rate” value was found to be 0.0263 ± 0.012.

On to UCCUGGAUCAGCUUGCAUAGUAUUUAUUA, for which the “pre-steady-state target cleavage rate” value worked out at 0.112 ± 0.018. Under UCCACCUACAGCUUCCAUAGUAUUUACUUA stands 0.0591 ± 0.022; under UCCUGGAACAGCUUGCAUAGUAUUAUGUAA, 0.0143 ± 0.0054; under UCCUGCUACAGCAUGCAUAGUAUUUUCAAA, 0.267 ± 0.074. Under UCCUGGAUGUCCUAGCAUAGUAUUUAGUUA stands 0.0213 ± 0.0065; under UCCUGGAACAGCUUGCAUAGUAAUAAGUUA, 0.0962 ± 0.016; under UCCUGCUACAGCUUCCAUAGUAUAUAGUUA, 0.112 ± 0.037. Consider AGGACCUACAGCUUGCAUUCUAUUUACAAA, for which the “pre-steady-state target cleavage rate” value worked out at 0.17 ± 0.055. Under UCCUCCUACAGCUUGCAUAGUAAUUUCAAA stands 0.264 ± 0.062. Under UCCUGGAUGUGCUUGCAUAGUAUUUUCAAA stands 0.0136 ± 0.005; under UCGACCUUGAGCUUGCAUAGUAUUUUCAAA, 0.156 ± 0.026.
